These results are taken from the supplement of paper PMC3334620.

In all, about 33,000 sequences were measured (“E-score (-0.5 to 0.5)”: median about -0.032, highest 2% from about 0.36 on). Some of the results follow.

The experiment has as its target T1, Sko1 (UniProt Q02100).
T1 sequence: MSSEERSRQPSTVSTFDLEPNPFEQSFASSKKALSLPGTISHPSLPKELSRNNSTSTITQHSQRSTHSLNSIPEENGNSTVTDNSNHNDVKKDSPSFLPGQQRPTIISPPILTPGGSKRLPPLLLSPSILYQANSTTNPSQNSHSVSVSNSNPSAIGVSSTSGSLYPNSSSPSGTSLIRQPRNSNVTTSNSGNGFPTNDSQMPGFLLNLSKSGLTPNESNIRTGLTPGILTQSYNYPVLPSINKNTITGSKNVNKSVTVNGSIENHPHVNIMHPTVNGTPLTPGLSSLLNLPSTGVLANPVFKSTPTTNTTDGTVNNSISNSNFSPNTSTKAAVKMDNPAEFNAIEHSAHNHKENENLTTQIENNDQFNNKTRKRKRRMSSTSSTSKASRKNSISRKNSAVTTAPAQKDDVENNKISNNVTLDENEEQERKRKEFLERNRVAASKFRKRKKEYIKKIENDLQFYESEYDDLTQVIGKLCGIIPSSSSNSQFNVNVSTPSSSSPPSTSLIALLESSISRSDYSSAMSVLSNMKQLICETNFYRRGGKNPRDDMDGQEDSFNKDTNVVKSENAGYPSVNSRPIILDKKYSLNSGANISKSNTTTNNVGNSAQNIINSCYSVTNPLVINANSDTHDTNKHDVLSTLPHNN
Put plainly: PBM E-score (8-mer binding enrichment) (E-score (-0.5 to 0.5)); higher = stronger / more preferred TF binding; most listed sequences are background and not binding sites. Conditions: protein concentration: 200 nM; construct: GST-full length. In short, it runs like this:
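Universal all-10-mer Agilent arrays, double-stranded by primer extension on fresh or once-stripped slides, were probed with about 100-200 nM GST-tagged yeast transcription factors made by PURExpress. Fluorescent anti-GST detected bound protein, and masliner normalised the scans. E-scores from the Universal PBM Analysis Suite were given to each ungapped eight-base word pooled with its reverse complement.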
CAGCGACC: the “PBM E-score” value was -0.145.

In the case of AAGTCAAC, the “PBM E-score” value was 0.0804.

With AATATCAC, the “PBM E-score” value was 0.2.

As for AGTTCTCG, the “PBM E-score” value came to 0.0316.

Take ATACTTCA: the “PBM E-score” value came to 0.0867.

On to ACGGCTCT, for which the “PBM E-score” value was -0.219.

On to CAATAAGA, for which the “PBM E-score” value stood at 0.0999.

In the case of ATCCCCGA, the “PBM E-score” value was -0.292.

As for ATCTTAAA, the “PBM E-score” value worked out at 0.133.

As for CCTTGCTA, the “PBM E-score” value is -0.135.

With GAGCCCCC, the “PBM E-score” value was -0.176.

Consider CAAGCGGA, for which the “PBM E-score” value is -0.241.

For ATACAATG, the “PBM E-score” value was determined as 0.0937.

Turning to GGGGCACC, the “PBM E-score” value was -0.225.

Turning to AACATGGC, the “PBM E-score” value is -0.0371.

Consider AATGGGAA, for which the “PBM E-score” value is -0.181.

For the sequence AAGAAGAT, the “PBM E-score” value was -0.00249.

CGGTGAAA: the “PBM E-score” value is 0.0268.

AAAGTAAA: the “PBM E-score” value is 0.0553.

As to ATTGCATC, the “PBM E-score” value was 0.17.

Take ATGAGTAA: the “PBM E-score” value is 0.0238.

AGAAAGTG: the “PBM E-score” value was -0.0888.

Regarding CTTTTCCC, the “PBM E-score” value was determined as 0.0673.

ATCACAAC: the “PBM E-score” value is 0.205.

Turning to GTACATAC, the “PBM E-score” value came to 0.158.

TCTGCAAA: the “PBM E-score” value came to 0.043.

On to AGCGCCGA, for which the “PBM E-score” value was -0.209.

For AGAGCCTA, the “PBM E-score” value is 0.0998.

Consider GCAATAGA, for which the “PBM E-score” value was -0.0144.

For AACACGTT, the “PBM E-score” value was 0.313.

Consider AAGAAATA, for which the “PBM E-score” value came out at 0.203.

As for ATGCTATA, the “PBM E-score” value came out at 0.0431.

Turning to CTCCTTTA, the “PBM E-score” value was -0.193.

Regarding GCTCCACA, the “PBM E-score” value is -0.302.

In the case of GAAAAAGC, the “PBM E-score” value is -0.096.

On to CAACTGAC, for which the “PBM E-score” value was determined as 0.0945.

Turning to ACGAAAAG, the “PBM E-score” value turned out to be 0.205.

With ATACTAAT, the “PBM E-score” value stood at 0.138.

As for GCCATGCC, the “PBM E-score” value is -0.22.

Consider GCATTGGA, for which the “PBM E-score” value was -0.0991.

In the case of GAAGGGTA, the “PBM E-score” value was -0.12.

On to CATAATAC, for which the “PBM E-score” value came out at 0.3.

Regarding CAGATATG, the “PBM E-score” value is 0.0349.

On to ATTCTAGC, for which the “PBM E-score” value was -0.0448.

In the case of TCAAAGAA, the “PBM E-score” value was found to be 0.115.

As to GTGGGTTA, the “PBM E-score” value is -0.025.

AGGCTCAC: the “PBM E-score” value was -0.261.

Regarding AGCATTTC, the “PBM E-score” value came to 0.00434.

For CACTTAAA, the “PBM E-score” value came out at 0.107.

In the case of CTTCGGAA, the “PBM E-score” value was -0.083.

Turning to ATACTTCG, the “PBM E-score” value was 0.109.

With GACCCCCC, the “PBM E-score” value is -0.34.

For the sequence TAAAAGCA, the “PBM E-score” value was determined as 0.0315.

Turning to TCTTGGAA, the “PBM E-score” value amounted to 0.00281.

As for AGGCCACC, the “PBM E-score” value was -0.164.

As to AGAATAAT, the “PBM E-score” value is 0.11.

For GATCTTGA, the “PBM E-score” value was determined as 0.112.

For AAGCGCCG, the “PBM E-score” value is -0.14.

For CCAACAAC, the “PBM E-score” value was -0.0332.

For the sequence GGACGAAA, the “PBM E-score” value was -0.0622.

For the sequence AAAGTTGA, the “PBM E-score” value is 0.122.

Regarding CCTCTACA, the “PBM E-score” value was -0.16.

ATGTTTGG: the “PBM E-score” value came to 0.142.

In the case of AATCCTCC, the “PBM E-score” value was -0.215.

For the sequence ACGGCTGA, the “PBM E-score” value is -0.00369.

On to CCTTCTTC, for which the “PBM E-score” value is -0.155.

AGCGACAC: the “PBM E-score” value worked out at 0.128.

With AACTGTCG, the “PBM E-score” value is -0.042.

For the sequence AGCCGACA, the “PBM E-score” value is -0.231.

In the case of CTATCTCC, the “PBM E-score” value is -0.0881.

In the case of CGGTGATC, the “PBM E-score” value is -0.231.

Turning to TGAACGCA, the “PBM E-score” value was 0.16.

Take AATCTTCG: the “PBM E-score” value came to 0.12.

As to ATAAGCAT, the “PBM E-score” value stood at 0.0305.

As for CAGGTGGG, the “PBM E-score” value is -0.174.

Take CAAGATAC: the “PBM E-score” value came to 0.0986.

ATGGAAGA: the “PBM E-score” value was -0.0282.

Consider ATGTATAA, for which the “PBM E-score” value is 0.245.

Consider AAGCGATG, for which the “PBM E-score” value was -0.129.

Consider GGAGATTA, for which the “PBM E-score” value turned out to be 0.12.

As for TGGGCCAA, the “PBM E-score” value was -0.225.

As for GAAAACAA, the “PBM E-score” value is 0.067.

As to CATTACGC, the “PBM E-score” value is 0.409.

As to ATGTGGGC, the “PBM E-score” value was 0.0399.

Regarding CGATAGGA, the “PBM E-score” value was -0.151.

Turning to ACGGACGG, the “PBM E-score” value was -0.103.

With CACAGCTA, the “PBM E-score” value was -0.156.

Take GCTCCAGA: the “PBM E-score” value was -0.126.

For AATCCCAC, the “PBM E-score” value is -0.00495.

For CGTCGCCC, the “PBM E-score” value was 0.0479.

Regarding CCCCAGCC, the “PBM E-score” value was -0.251.

Take CGCACCCC: the “PBM E-score” value is 0.00905.

For TAACAGAA, the “PBM E-score” value worked out at 0.21.

Consider TTAGCCAA, for which the “PBM E-score” value was -0.108.
